# Results published in the supplement of paper PMC8728848.
# The other results are listed elsewhere or left out.
# Experiments:
# Experiment in all cases: glycan array binding signal (z-score within array); higher = stronger binding
# Details in all cases: glycan notation: IUPAC condensed, linker removed; mutation: A146Q
# [1] = target: GlcNAc(a1-4)Gal(b1-4)GalNAc
# Procedure, shortened: (§1)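 From the Consortium for Functional Glycomics database, 3228 arrays were curated, keeping only those whose protein sequence was available. Binding is given as a within-array Z-score averaged across arrays sharing a protein sequence and across linkers. Negative Z-scores can be read as non-binding.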
# [2] = target: GlcNAc(a1-4)Gal(b1-4)GlcNAc
# Procedure, shortened: as §1
# [3] = target: GlcNAc(a1-4)Gal(b1-4)GlcNAc(b1-3)Gal(b1-4)Glc
# Procedure, shortened: as §1
# [4] = target: GlcNAc(a1-4)Gal(b1-4)GlcNAc(b1-3)Gal(b1-4)GlcNAc
# Procedure, shortened: as §1
# [5] = target: GlcNAc(a1-4)Gal(b1-4)GlcNAc(b1-3)Gal(b1-4)GlcNAc(b1-3)Gal(b1-4)GlcNAc
# Procedure, shortened: as §1
# [6] = target: GlcNAc(a1-4)Gal(b1-4)GlcNAc(b1-3)Gal(b1-4)[Fuc(a1-3)]GlcNAc(b1-3)Gal(b1-4)[Fuc(a1-3)]GlcNAc
# Procedure, shortened: as §1
# [7] = target: GlcNAc(a1-6)Gal(b1-4)GlcNAc
# Procedure, shortened: as §1
# [8] = target: GlcNAc(b1-2)Gal(b1-3)GalNAc
# Procedure, shortened: as §1
# [9] = target: GlcNAc(b1-2)Man(a1-3)[GlcNAc(b1-2)Man(a1-6)]Man(b1-4)GlcNAc(b1-4)GlcNAc
# Procedure, shortened: as §1
# [10] = target: GlcNAc(b1-2)Man(a1-3)[GlcNAc(b1-2)Man(a1-6)]Man(b1-4)GlcNAc(b1-4)[Fuc(a1-6)]GlcNAc
# Procedure, shortened: as §1
# [11] = target: GlcNAc(b1-2)[GlcNAc(b1-4)]Man(a1-3)[GlcNAc(b1-2)Man(a1-6)]Man(b1-4)GlcNAc(b1-4)GlcNAc
# Procedure, shortened: as §1
# GlcNAc(b1-3)Gal = target: GlcNAc(b1-3)Gal
# Procedure, shortened: as §1
# [12] = target: GlcNAc(b1-3)Gal(b1-3)GalNAc
# Procedure, shortened: as §1
# GlcNAc(b1-3)Gal(b1-4)Glc = target: GlcNAc(b1-3)Gal(b1-4)Glc
# Procedure, shortened: as §1
# [13] = target: GlcNAc(b1-3)Gal(b1-4)GlcNAc
# Procedure, shortened: as §1
# [14] = target: GlcNAc(b1-3)Gal(b1-4)GlcNAc(b1-3)Gal(b1-4)GlcNAc
# Procedure, shortened: as §1
# GlcNAc(b1-3)GalNAc = target: GlcNAc(b1-3)GalNAc
# Procedure, shortened: as §1
# GlcNAc(b1-3)Man = target: GlcNAc(b1-3)Man
# Procedure, shortened: as §1
# [15] = target: GlcNAc(b1-3)[GlcNAc(b1-4)][GlcNAc(b1-6)]GlcNAc
# Procedure, shortened: as §1
# [16] = target: GlcNAc(b1-3)[GlcNAc(b1-6)]Gal(b1-4)GlcNAc
# Procedure, shortened: as §1
# [17] = target: GlcNAc(b1-3)[GlcNAc(b1-6)]GalNAc
# Procedure, shortened: as §1
# [18] = target: GlcNAc(b1-4)Gal(b1-4)GlcNAc
# Procedure, shortened: as §1
# GlcNAc(b1-4)GlcNAc = target: GlcNAc(b1-4)GlcNAc
# Procedure, shortened: as §1
# [19] = target: GlcNAc(b1-4)GlcNAc(b1-4)GlcNAc
# Procedure, shortened: as §1
# [20] = target: GlcNAc(b1-4)GlcNAc(b1-4)GlcNAc(b1-4)GlcNAc(b1-4)GlcNAc
# Procedure, shortened: as §1
# [21] = target: GlcNAc(b1-4)GlcNAc(b1-4)GlcNAc(b1-4)GlcNAc(b1-4)GlcNAc(b1-4)GlcNAc
# Procedure, shortened: as §1
# [22] = target: GlcNAc(b1-4)[GlcNAc(b1-6)]GalNAc
# Procedure, shortened: as §1
# [23] = target: GlcNAc(b1-6)Gal(b1-4)GlcNAc
# Procedure, shortened: as §1
# GlcNAc(b1-6)GalNAc = target: GlcNAc(b1-6)GalNAc
# Procedure, shortened: as §1
# GlcNAc3Prop(b1-4)GlcNAc = target: GlcNAc3Prop(b1-4)GlcNAc
# Procedure, shortened: as §1
# [24] = target: GlcNAc6S(b1-3)Gal(b1-4)GlcNAc
# Procedure, shortened: as §1
# Kdn(a2-3)Gal(b1-3)GalNAc = target: Kdn(a2-3)Gal(b1-3)GalNAc
# Procedure, shortened: as §1
# Kdn(a2-3)Gal(b1-3)GlcNAc = target: Kdn(a2-3)Gal(b1-3)GlcNAc
# Procedure, shortened: as §1
# Kdn(a2-3)Gal(b1-4)Glc = target: Kdn(a2-3)Gal(b1-4)Glc
# Procedure, shortened: as §1
# Kdn(a2-3)Gal(b1-4)GlcNAc = target: Kdn(a2-3)Gal(b1-4)GlcNAc
# Procedure, shortened: as §1
binder,measurement,setting,value
"Gal 3 (Homo sapiens), P17931 (protein) MADNFSLHDALSGSGNPNPQGWPGAWGNQPAGAGGYPGASYPGAYPGQAPPGAYPGQAPPGAYHGAPGAYPGAPAPGVYPGPPSGPGAYPSSGQPSAPGAYPATGPYGAPAGPLIVPYNLPLPGGVVPRMLITILGTVKPNANRIQLDFQRGNDVAFHFNPRFNENNRRVIVCNTKLDNNWGREERQSVFPFESGKPFKIQVLVEPDHFKVAVNDAHLLQYNHRVKKLNEISKLGISGDIDLTSASYTMI",glycan array binding signal (z-score),[1],-0.198
same,glycan array binding signal (z-score),[2],-0.173
same,glycan array binding signal (z-score),[3],-0.199
same,glycan array binding signal (z-score),[4],-0.155
same,glycan array binding signal (z-score),[5],2.23
same,glycan array binding signal (z-score),[6],-0.158
same,glycan array binding signal (z-score),[7],-0.134
same,glycan array binding signal (z-score),[8],-0.198
same,glycan array binding signal (z-score),[9],-0.177
same,glycan array binding signal (z-score),[10],-0.197
same,glycan array binding signal (z-score),[11],-0.182
same,glycan array binding signal (z-score),GlcNAc(b1-3)Gal,-0.198
same,glycan array binding signal (z-score),[12],-0.176
same,glycan array binding signal (z-score),GlcNAc(b1-3)Gal(b1-4)Glc,-0.195
same,glycan array binding signal (z-score),[13],-0.204
same,glycan array binding signal (z-score),[14],0.858
same,glycan array binding signal (z-score),GlcNAc(b1-3)GalNAc,-0.202
same,glycan array binding signal (z-score),GlcNAc(b1-3)Man,-0.204
same,glycan array binding signal (z-score),[15],-0.166
same,glycan array binding signal (z-score),[16],-0.206
same,glycan array binding signal (z-score),[17],-0.198
same,glycan array binding signal (z-score),[18],-0.192
same,glycan array binding signal (z-score),GlcNAc(b1-4)GlcNAc,-0.132
same,glycan array binding signal (z-score),[19],-0.18
same,glycan array binding signal (z-score),[20],-0.091
same,glycan array binding signal (z-score),[21],-0.153
same,glycan array binding signal (z-score),[22],-0.203
same,glycan array binding signal (z-score),[23],-0.195
same,glycan array binding signal (z-score),GlcNAc(b1-6)GalNAc,-0.194
same,glycan array binding signal (z-score),GlcNAc3Prop(b1-4)GlcNAc,-0.201
same,glycan array binding signal (z-score),[24],-0.198
same,glycan array binding signal (z-score),Kdn(a2-3)Gal(b1-3)GalNAc,-0.191
same,glycan array binding signal (z-score),Kdn(a2-3)Gal(b1-3)GlcNAc,-0.183
same,glycan array binding signal (z-score),Kdn(a2-3)Gal(b1-4)Glc,-0.194
same,glycan array binding signal (z-score),Kdn(a2-3)Gal(b1-4)GlcNAc,-0.18
